From PMC4336329 (PLoS ONE, 2015)
Screen size: about 310,000 compounds; about 14,000 (4.5%) showed an effect of 50% or more. Effects have a minus sign here. This is one part of the list. Where a SMILES comes first, the peptide text is derived from it. [ ]: non-standard residue; d: D form. The star is where a group is joined. ξ: configuration not given here. Cbz = O=C(OCc1ccccc1)*; ξL = CC(C)CC(N)C(=O)O; ξP = O=C(O)C1CCCN1

What follows are compounds tested against human ether-à-go-go-related gene (hERG) potassium channel (human, UniProt Q12809) (assay: primary screen, population patch clamp on CHO cells stably expressing hERG).
human ether-à-go-go-related gene (hERG) potassium channel, sequence (Q12809 whole entry, looked up): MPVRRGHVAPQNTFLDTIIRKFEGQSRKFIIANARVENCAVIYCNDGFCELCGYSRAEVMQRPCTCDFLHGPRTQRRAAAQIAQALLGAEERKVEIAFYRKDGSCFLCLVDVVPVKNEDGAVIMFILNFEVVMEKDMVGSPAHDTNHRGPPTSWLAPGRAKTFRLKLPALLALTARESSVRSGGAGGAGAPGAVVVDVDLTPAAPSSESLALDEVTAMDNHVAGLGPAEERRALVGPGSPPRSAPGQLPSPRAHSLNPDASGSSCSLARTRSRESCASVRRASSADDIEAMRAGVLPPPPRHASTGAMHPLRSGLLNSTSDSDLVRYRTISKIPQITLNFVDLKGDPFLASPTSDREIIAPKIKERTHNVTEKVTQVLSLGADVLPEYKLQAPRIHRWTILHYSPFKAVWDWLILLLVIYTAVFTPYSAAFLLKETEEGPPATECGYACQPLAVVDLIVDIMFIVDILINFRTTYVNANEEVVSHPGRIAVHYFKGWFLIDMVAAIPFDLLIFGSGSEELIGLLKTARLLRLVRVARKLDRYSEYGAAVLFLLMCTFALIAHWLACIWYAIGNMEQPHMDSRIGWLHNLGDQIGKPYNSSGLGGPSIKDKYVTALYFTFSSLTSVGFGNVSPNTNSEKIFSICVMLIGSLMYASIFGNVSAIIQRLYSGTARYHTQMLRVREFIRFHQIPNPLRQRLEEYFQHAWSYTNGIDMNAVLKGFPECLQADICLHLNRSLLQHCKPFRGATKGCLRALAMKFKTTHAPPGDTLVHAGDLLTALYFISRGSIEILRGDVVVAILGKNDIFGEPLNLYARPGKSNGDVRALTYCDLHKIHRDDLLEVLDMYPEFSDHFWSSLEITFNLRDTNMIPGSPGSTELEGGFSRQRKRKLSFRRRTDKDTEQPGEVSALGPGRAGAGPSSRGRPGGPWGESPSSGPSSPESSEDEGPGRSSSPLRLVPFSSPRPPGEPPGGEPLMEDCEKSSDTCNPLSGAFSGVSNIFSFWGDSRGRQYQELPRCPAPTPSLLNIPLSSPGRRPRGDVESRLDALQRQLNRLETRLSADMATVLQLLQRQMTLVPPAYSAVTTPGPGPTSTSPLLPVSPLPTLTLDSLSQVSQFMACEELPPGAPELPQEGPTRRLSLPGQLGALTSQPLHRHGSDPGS
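Also: peak tail current of the secondary pulse compared with the same well before compound.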

Row | Compound | hERG current change (%, negative = inhibition) at 10uM [%]
1 | CCCNc1nc2c(c(=O)[nH]c(=O)n2C)n1Cc1ccc(F)cc1 | -4.66
2 | Cc1ccc(SCc2cc(=O)[nH]c(/N=C(\N)Nc3ccccc3Sc3ccccc3)n2)cc1 | 3.89
3 | Cc1ccc(Nc2nc(CSc3nnc(-c4cccnc4)n3-c3ccccc3F)cs2)cc1 | -41.6
4 | CCOC(=O)CN1C(=O)C(=O)c2cccc(C)c21 | 14.1
5 | CCOc1ccc(NC(=O)C2Cc3ccccc3CN2S(=O)(=O)CC)cc1 (stereo not drawn) | -10.7
6 | CS(=O)(=O)c1ccc(C(=O)N2CCc3ccccc3C2)cc1 | 8.96
7 | CCN(CC)CCNc1nc(C(F)(F)F)nc2c1nnn2Cc1ccccc1 | -38.2
8 | O=C(NCCc1ccccc1)c1cccc(S(=O)(=O)N2CCCCC2)c1 | 5.18
9 | COC(=O)c1cc(C(=O)c2c(C)cc3ccccn23)cc([N+](=O)[O-])c1 | 16.5
10 | Cc1onc(-c2c(F)cccc2Cl)c1C(=O)N1C=CC(C(F)(F)Cl)=NCC1 | -13.4
11 | CC(C)(C)NC(=O)CN(CCN1CCOCC1)C(=O)CNS(=O)(=O)c1ccccc1 | 19.4
12 | COC(=O)N1CC(=O)N(OC)C1c1ccc(Cl)cc1Cl (stereo not drawn) | -10.8
13 | O=C(CCn1cnc2ccccc2c1=O)Nc1cccc(Cl)c1 | 0.577
14 | O=C(NNC(=S)Nc1cccc(Cl)c1)c1ccccc1 | 21.7
15 | Fc1ccc(OCc2nn[nH]n2)c(F)c1 | 23.7
16 | CCC(=NC(C)c1ccccc1)c1c(O)[nH]c(=O)[nH]c1=O (stereo not drawn) | -6.08
17 | CCC(=O)NC1CC2CCCC(C1)N2Cc1ccc(C)cc1 (stereo not drawn) | -37.4
18 | Cc1cc(C)nc(NS(=O)(=O)c2ccc(Br)s2)c1.Cl | -5.41
19 | O=C(NC1CCCCC1)c1cc(C2CC2)nn1-c1ccccc1 | -51.2
20 | Cc1ccc2nc(SC(C(=O)c3ccccc3)c3ccccc3)nc(C)c2c1 (stereo not drawn) | 4.7
21 | O=C(Nc1ccccc1OC(F)F)c1ccccc1 | 11.5
22 | CC(C)CNC(=O)c1cccc(NC(=O)CSc2ccccc2)c1 | -13

Row | Compound | hERG current change (%, negative = inhibition) at 10uM [%]
23 | Cc1ccc(CCNS(=O)(=O)c2c(C)nc3sccn3c2=O)cc1 | -9.27
24 | CCOC(=O)C1=C(c2ccccc2)NC(=O)NC1c1cc(OC)c(OC)c(OC)c1 (stereo not drawn) | 11.1
25 | CC1(NC(=O)c2ccccc2)CCN(CCCc2ccccc2)C1=O (stereo not drawn) | 10
26 | CCOC(=O)c1c(C=O)c2ccccc2n1Cc1ccccc1 | 1.88
27 | COC(=O)c1cc(NC(=O)CN(c2ccc3c(c2)OCO3)S(C)(=O)=O)ccc1Cl | -8.58
28 | COc1ccc(/C(C)=N/NC(=O)CN(c2ccc(OC)cc2)S(=O)(=O)c2ccccc2)cc1 | 29.1
29 | Cc1ccc(-c2nc(SCC(=O)Nc3cc(S(=O)(=O)N4CCCCC4)ccc3Cl)n[nH]2)cc1 | -5.01
30 | CCC(C(=O)NC1CCCC1)N(C(=O)Cn1nnc(-c2ccc(C)o2)n1)c1ccc(OC)cc1 (stereo not drawn) | 5.12
31 | Cn1c(O)c(N=NC(=O)CNC(=O)c2ccco2)c2ccccc21 | 0.0891
32 | O=C(N/C(=C\c1cccc(Br)c1)C(=O)N1CCCCC1)c1ccco1 | -0.311
33 | CCOc1ccccc1Nc1nnc(C)c(=O)[nH]1 | 9.4
34 | COc1ccc(OC)c(/C=N\NC(=O)c2ccc(COc3ccc(C)cc3[N+](=O)[O-])o2)c1 | 16.2
35 | O=C(COc1ccc([N+](=O)[O-])cc1)NNC(=O)c1cccnc1 | 13.2
36 | O=C(COc1cccc(Cl)c1)Nc1ccc(N2CCOCC2)cc1 | 0.239
37 | CC1(C)OC(=O)C(=Cc2ccc[nH]2)C(=O)O1 | 0.66
38 | COc1ccccc1CCc1nnc(CCC(=O)NC(C)Cc2cccnc2)o1 (stereo not drawn) | 13.2
39 | Cc1ccc(C(=O)Nc2ccc(CN3CCCCC3)cc2)c(C)c1 | -35.2
40 | Cl.O=C1CC(c2ccccc2)CC2=C1CN(C1CCCCC1)CN2 (stereo not drawn) | 14.8
41 | COC(=O)C1=C(c2cccc(C#N)c2)C[C@@H]2CC[C@H]1N2C(=O)NCCOc1ccccc1Cl | -24.8
42 | CNc1nc(SCC(=O)OC)nc(N2CCOCC2)n1 | 11.3
43 | O=C1CCc2cc(S(=O)(=O)NC3CCCCC3)ccc2N1 | -19.3
44 | OC1(c2cccnc2)CCN(Cc2nnnn2Cc2ccccc2)CC1 | -1.59

Row | Compound | hERG current change (%, negative = inhibition) at 10uM [%]
45 | Cc1cc(=O)[nH]c(SCCOc2ccc3c(c2)CCC3)n1 | 13.1
46 | CCC(C)NC(=O)NC(=O)CSc1nnc(-c2ccccc2F)n1C1CC1 (stereo not drawn) | 12.1
47 | CC(Cc1cccs1)NC(=O)Nc1ccc(F)cc1 (stereo not drawn) | 18.2
48 | O=C(N/C(=C\c1ccco1)C(=O)N1CCC(O)CC1)c1ccccc1 | 27.7
49 | O=C1C=C(c2ccc(-c3ccccc3)cc2)C[C@@H](c2ccc(Cl)cc2)C1 | 21.8
50 | Cc1cccc(-n2c(=O)[nH]c3c(C(N)=O)nc(-c4ccccc4Cl)nc32)c1 | -2.8
51 | CC(CNCc1ccc2c(c1)OCO2)NCc1ccc2c(c1)OCO2 (stereo not drawn) | -54.5
52 | CC(=O)N(/N=C/c1ccc(C)cc1)c1nc(CCl)cs1 | -8
53 | CCn1c(=O)c(C(=O)CN2CCCc3ccccc32)c(N)n(Cc2ccccc2)c1=O | -6.1
54 | O=C(O)C1CC=CCC1C(=O)N1CCN(c2nc(-c3ccccc3Cl)c3cc(Br)ccc3n2)CC1 (stereo not drawn) | -19.3
55 | O=C(Nc1ccc(-c2ccc3nncn3n2)cc1)C1CCCC1 | -25.9
56 | Cc1cc(C)c2oc(-c3ccc(Cl)c(NC(=O)c4ccc(C#N)cc4F)c3)nc2c1 | -6.92
57 | COc1ccc(C(CC(=O)[O-])NS(=O)(=O)c2ccc(C)cc2)cc1.[Na+] (stereo not drawn) | -2.43
58 | COc1ccc(C2SCCN2S(=O)(=O)c2ccc(NC(C)=O)cc2)cc1 (stereo not drawn) | -10.4
59 | CCOCCCNC(=O)/C(C#N)=C/c1cc(C)c(O)c(C)c1 | 11.9
60 | O=C1NCCCC1C(=O)N/N=C/c1cc([N+](=O)[O-])ccc1O (stereo not drawn) | 6.07
61 | CN1CCN(c2ccccc2NC(=O)c2ccc([N+](=O)[O-])cc2Cl)CC1 | -34.9
62 | Cc1nn(CCC#N)c(N)c1C1(O)C(=O)Nc2c(Cl)cc(Cl)cc21 (stereo not drawn) | 6.93
63 | CN1CCN(NC(=O)c2ccc(Cl)c([N+](=O)[O-])c2)CC1 | 8.74
64 | Cc1cccc2nc(CSc3nc4[nH]ncc4c(=O)n3-c3ccccc3Cl)cc(=O)n12 | -21.5
65 | O=C(CCC1CCCC1)NCCCN1CCOCC1 | 5.52
66 | Cc1cc(C)n2cnnc2n1 | 42.1

Row | Compound | hERG current change (%, negative = inhibition) at 10uM [%]
67 | Cc1cc(=O)oc2c(CN3CCCCC3)c(O)c(Cl)cc12 | -5.43
68 | O=C(C[n+]1cc(Br)cc2ccccc21)c1ccc(Cl)cc1.[Br-] | -49.8
69 | CCCc1nnc(NC(=O)CCS(=O)(=O)c2ccccc2)s1 | 4.2
70 | COC(=O)C1=C(c2cccc(OC)c2OC)C[C@@H]2CC[C@H]1N2C(=O)NC(C)C | 13.7
71 | CC(C)(Oc1ccc(Cl)cc1)C(=O)Nc1ccc2oc(=O)ccc2c1 | -28.6
72 | O=C(CN1C2CCCC1CC(NC(=O)c1ccccc1)C2)NC1CC1 (stereo not drawn) | 26.9
73 | O=C(Cn1nc(-c2ccc(Cl)cc2)ccc1=O)N1CCN(c2ccccc2)CC1 | -35.9
74 | CC12CCC(C(=O)Nc3ccccc3)(C/C1=N\O)C2(C)C (stereo not drawn) | 10.9
75 | C[C@]12CC[C@@H]3c4ccc(O)cc4CC[C@H]3[C@@H]1CC[C@@H]2OC(=O)CCC(=O)O | 24.9
76 | CS(=O)(=O)c1ccc(-c2cccc(NC(=O)c3ccco3)c2)nn1 | 9.27
77 | CCSc1nnc([C@H](Cc2ccccc2)NC(=O)OC(C)(C)C)o1 | -11.6
78 | COc1ccc(OC)c(S(=O)(=O)Nc2cccnc2)c1 | 5.18
79 | Cc1ccc(CN2CCCC(C(=O)N3CCCC3)C2)cc1.O=C(O)C(=O)O (stereo not drawn) | -5.83
80 | O=[N+]([O-])c1ccc(C(O)C23CN4CN(CN(C4)C2)C3)cc1 (stereo not drawn) | 24.9
81 | CC(C)CC(NC(=O)C1CCCN1C(=O)[C@@H](C)NC(=O)OCc1ccccc1)C(=O)NCC(N)=O (stereo partly drawn) (Cbz-[dA][ξP][ξL]G-NH2) | 1.76
82 | CN1CCc2c(sc3c2C(=O)NC(c2ccc(-c4cccc(Cl)c4)o2)N3)C1 (stereo not drawn) | -33.6
83 | COc1ccccc1CN(C)C(=O)c1cccc(S(=O)(=O)N2CCCC2)c1 | -5.48
84 | Cc1cccc(-[n+]2c(-c3cccc(Br)c3)[nH]c3nc4ccccc4nc32)c1 | 12.9
85 | O=C(c1ccc(F)cc1)c1cn(Cc2ccc(F)cc2)c2cc3c(cc2c1=O)OCCO3 | -71.1
86 | COc1cc2nc(=S)n3[nH]c(CCn4nc(C)cc4C)nc3c2cc1OC | 12.5
87 | Cc1ccc(S(=O)(=O)/N=C/c2ccc(N(C)C)cc2)cc1 | 19.5
